Data published in PMC4336329 (PLoS ONE, 2015).
In all, about 310,000 compounds went through this assay and about 2,200 (0.71%) showed an effect of 50% or more. Effects have a minus sign here. Some of the results follow.

molecular target: human ether-à-go-go-related gene (hERG) potassium channel (human, UniProt Q12809); test: primary screen, population patch clamp on CHO cells stably expressing hERG
Sequence (Q12809 whole entry, looked up): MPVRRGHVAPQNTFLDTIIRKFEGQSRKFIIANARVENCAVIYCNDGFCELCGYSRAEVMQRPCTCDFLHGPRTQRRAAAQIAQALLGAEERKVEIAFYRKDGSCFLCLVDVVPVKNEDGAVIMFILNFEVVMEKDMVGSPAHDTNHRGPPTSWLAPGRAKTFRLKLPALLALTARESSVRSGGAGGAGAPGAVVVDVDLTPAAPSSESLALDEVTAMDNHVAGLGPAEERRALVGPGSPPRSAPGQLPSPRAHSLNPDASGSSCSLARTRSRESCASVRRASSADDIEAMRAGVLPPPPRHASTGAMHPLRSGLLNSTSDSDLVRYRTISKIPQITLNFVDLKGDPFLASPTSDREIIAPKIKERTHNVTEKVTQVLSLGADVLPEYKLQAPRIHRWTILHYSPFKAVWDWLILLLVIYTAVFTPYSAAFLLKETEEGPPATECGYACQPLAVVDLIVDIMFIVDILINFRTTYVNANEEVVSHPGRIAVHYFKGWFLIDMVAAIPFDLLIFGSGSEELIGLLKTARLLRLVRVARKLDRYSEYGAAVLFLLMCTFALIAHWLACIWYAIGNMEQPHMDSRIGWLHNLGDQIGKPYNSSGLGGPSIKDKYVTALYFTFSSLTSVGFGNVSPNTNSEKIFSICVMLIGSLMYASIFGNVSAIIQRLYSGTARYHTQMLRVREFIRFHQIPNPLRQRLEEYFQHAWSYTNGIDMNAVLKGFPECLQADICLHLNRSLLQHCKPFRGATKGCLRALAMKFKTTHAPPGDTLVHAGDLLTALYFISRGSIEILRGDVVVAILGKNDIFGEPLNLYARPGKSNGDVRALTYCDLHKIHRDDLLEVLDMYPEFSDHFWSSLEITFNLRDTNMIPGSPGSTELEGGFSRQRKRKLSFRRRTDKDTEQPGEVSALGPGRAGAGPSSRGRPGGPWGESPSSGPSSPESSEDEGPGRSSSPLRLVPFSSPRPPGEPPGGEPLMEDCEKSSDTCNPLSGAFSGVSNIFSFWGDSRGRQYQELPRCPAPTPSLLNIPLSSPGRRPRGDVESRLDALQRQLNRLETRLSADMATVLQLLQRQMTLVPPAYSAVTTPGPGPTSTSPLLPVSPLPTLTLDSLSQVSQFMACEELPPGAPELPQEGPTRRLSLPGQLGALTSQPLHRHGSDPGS

Row | SMILES | hERG current change (%, negative = inhibition) at 1uM
1 | Cc1nc2ccccc2n1CC(=O)OCC(=O)NCCc1ccccc1 | 18.8%
2 | COC(=O)c1[nH]c2ccc(C)cc2c1NC(=O)Oc1ccccc1 | 9.44%
3 | CCOC(=O)c1c(NC(=O)C2CCCCC2)sc2c1CCN(C(C)C)C2.Cl | -42%
4 | CC(=O)N1CCN=C1SCc1ccc(C(F)(F)F)cc1 | 7.91%
5 | CCOc1cccc(SCc2noc(C(=O)NC(C)C)c2C(=O)O)c1 | 2.57%
6 | O=C(CSc1nncs1)NNC(=O)c1ccco1 | 15%
7 | CCOC(=O)N1CCN(C(=O)c2ccc(C)c(S(=O)(=O)N3CCCCC3)c2)CC1 | -2.8%
8 | COc1cc(/C=N/n2c(C)nc3ccccc3c2=O)ccc1O | 15.5%
9 | CCn1cnc2sc(C(=O)O)c(C)c2c1=O | 17.9%
10 | Cc1ccc(OCCSc2nc3ccccc3n2CC(=O)O)cc1 | 19%
11 | CCOC(=O)c1c(/N=C/C2C(=O)CC(C)(C)CC2=O)sc2c1CCCC2 | 13.1%
12 | CCCNC(=O)C1(CC2CC(c3ccccc3)=NO2)CCN(C(=O)c2cc(OCC)c(OCC)c(OCC)c2)CC1 (stereo not shown) | 8.81%
13 | CCOC(=O)/C(C#N)=C/C=C1\C=Cc2ccccc2N1CC | 14.8%
14 | Cc1ccc(CNC(=O)C2CC3Cn4c(nc5cc(Cl)c(Cl)cc54)C3N2C)o1 (stereo not shown) | -19.7%
15 | Cc1c(C)c2ccc(OCC(=O)NCCN3CCOCC3)cc2oc1=O | 24.1%
16 | CN(C(=O)c1c[nH]c(=O)cc1C(F)(F)F)c1ccc(Cl)cc1 | 10.8%
17 | CN(C)c1oc(-c2ccco2)nc1S(=O)(=O)c1ccc(Br)cc1 | -2.53%
18 | O=C(O)c1cccc(S(=O)(=O)Nc2ccc3oc(=O)sc3c2)c1 | 5.37%
19 | CCc1ccc(C(=O)/C=C/c2ccc([N+](=O)[O-])o2)cc1 | 6.03%
20 | O=C1NC[C@H](c2ccccc2)N(CCc2cc(C(F)(F)F)cc(C(F)(F)F)c2)C1=O | -3.42%
21 | COc1ccc2cc(C(=O)NCc3ccccc3)c(=Nc3ccc(C(=O)O)cc3)oc2c1 | 13.9%
22 | CC(C)Cc1ccc(C(C)C(N)=Nc2ccc(O)cc2)cc1.Cl (stereo not shown) | -71.8%

Row | SMILES | hERG current change (%, negative = inhibition) at 1uM
23 | O=C(Nc1cccc(C(F)(F)F)c1)c1cnccn1 | 7.75%
24 | O=C1CC(N2CCC(c3nc4ccccc4o3)CC2)C(=O)N1c1ccc(Cl)c(C(F)(F)F)c1 (stereo not shown) | 7.36%
25 | CCCn1c(=NC(=O)c2ccco2)c(C(=O)OCC)cc2c(=O)n3ccccc3nc21 | -6.68%
26 | COc1c(Br)cc2c(C)c(C(=O)O)oc2c1Br | 9.64%
27 | O=C(NCCN1C(=O)S/C(=C\c2ccc(OC(F)F)cc2)C1=O)C1=COCCO1 | 6.28%
28 | Cc1nc2ccc(N3CCN(C)CC3)cc2nc1C | 11.2%
29 | CC(=O)Nc1ccc(S(=O)(=O)N(C)CC(=O)OC(C)C(=O)N(C)Cc2ccccc2)cc1 (stereo not shown) | 10.4%
30 | O=C(CSc1nncn1-c1cccnc1)Nc1cccc([N+](=O)[O-])c1 | 10.7%
31 | COc1ccc(NS(=O)(=O)c2ccc(-c3coc(C)n3)cc2)cc1 | 14.6%
32 | CCCCS(=O)(=O)N1CCCC(C(=O)Nc2ccc(Cl)cn2)C1 (stereo not shown) | 5.04%
33 | Cn1c2c(c(=O)n(C)c1=O)C(c1cccc([N+](=O)[O-])c1)Nc1ccccc1O2 (stereo not shown) | 0.499%
34 | CCCCC(=O)NC(c1ccc(N(C)C)cc1)c1ccc2cccnc2c1O (stereo not shown) | 11.5%
35 | O=C(NCCC1=CCCCC1)C1CCN(S(=O)(=O)c2ccccc2)CC1 | 25.5%
36 | O=S(=O)(NCc1ccccc1)c1ccc(NC(=S)NCc2ccco2)cc1 | 4.83%
37 | Cc1cccc(C(=O)Nc2ccc(NC(=O)CN3CCOCC3)cc2)c1 | 0.661%
38 | CC1=C(C(=O)Nc2ccccc2)C(c2cccs2)n2nnnc2N1 (stereo not shown) | 6.76%
39 | CCCn1c(SCC(=O)Nc2nnc(CC)s2)nnc1-c1ccncc1 | 12.3%
40 | Cc1nn(-c2ccccc2)c(C)c1/C=N/NC(=O)c1cc(-c2ccccc2)n[nH]1 | 0.273%
41 | COc1ccc(OC)c(C(C)NC(C)=O)c1 (stereo not shown) | 9.63%
42 | COc1cccc(NC(=O)Nc2nc(SC)ns2)c1 | 14.2%
43 | Nc1ccccc1C(=O)NCc1ccco1 | 9.22%
44 | CCCCn1c(N)c(N(CC(C)C)C(=O)c2ccc(S(=O)(=O)N3CCCCCC3)cc2)c(=O)[nH]c1=O | 8.66%

Row | SMILES | hERG current change (%, negative = inhibition) at 1uM
45 | O=[N+]([O-])c1cc(Cl)ccc1NCCc1ccccn1 | 11.1%
46 | Cc1cc(/C=C2\SC(=Nc3ccc(N4CCOCC4)cc3)N(C)C2=O)c(C)n1-c1cccnc1 | 17.1%
47 | Cc1noc(C)c1C(c1ccccc1)S(=O)(=O)c1ccccc1 (stereo not shown) | 23%
48 | Cc1ccc(NC(=S)NCc2cccs2)cc1 | -4.08%
49 | COC(=O)c1cc(=O)n(Cc2ccc3c(c2)OCO3)c(=Nc2ccccc2)s1 | 11.3%
50 | COc1ccccc1CNC(=O)c1ccc(CS(=O)Cc2cccc(Cl)c2)o1 (stereo not shown) | -7.42%
51 | O=c1[nH]c(C2CCN(S(=O)(=O)Cc3ccccc3)CC2)nc2c1nnn2Cc1ccccc1 | 15.2%
52 | CC1CCN(C(=O)c2ccc(NS(=O)(=O)c3ccc4[nH]c(=O)[nH]c4c3)cc2)CC1 | 5%
53 | COc1ccc(-c2cc(C)no2)cc1S(=O)(=O)N1CCCN(Cc2ccccc2Cl)C1 | 9.61%
54 | CCC(C)c1ccc(NS(=O)(=O)c2c(C)[nH]c(=O)[nH]c2=O)cc1 (stereo not shown) | 6.15%
55 | CC(C)CC(=O)c1c[nH]c(C(=O)NCc2cccs2)c1 | 4.99%
56 | O=C(CCCOc1ccc(Cl)cc1)N1CCOCC1 | 3.39%
57 | C/C(=N\NC(=S)NCc1ccccc1)c1ccc(C#N)cc1 | 12.3%
58 | Cc1nc(CNS(=O)(=O)c2ccc3ccccc3c2)cs1 | 14.8%
59 | CCN(C(=O)COC(=O)c1ccco1)c1c(N)n(Cc2ccccc2)c(=O)[nH]c1=O | 4.1%
60 | O=C(OCC(=O)N1CCCc2ccccc21)c1cc(S(=O)(=O)N2CCOCC2)ccc1O | -12.5%
61 | CC1(C)CC(=O)C2=C(C1)OC1=C(C(=O)CC(C)(C)C1)C2c1ccc(O)cc1O | -13.7%
62 | CC(=O)c1ccc(S(=O)(=O)N(C)CC(=O)NCC2CCCCC2)cc1 | 6.7%
63 | C=CCn1c(=O)c(C(=O)NCc2ccc3c(c2)OCO3)c(O)c2cc(OC)c(OC)cc21 | 14%
64 | COc1ccccc1NS(=O)(=O)c1ccc(S(=O)(=O)N2CCOCC2)cc1 | 1.8%
65 | O=C(COC(=O)c1cccc(O)c1)NC(=O)Cc1ccccc1 | 3.34%
66 | Cc1ccc(C(=O)NNC2=NC(C)(C)Cc3ccccc32)cc1.Cl | 5.77%

Row | SMILES | hERG current change (%, negative = inhibition) at 1uM
67 | OC1C[N+]2(CCCCC2)C1.[Cl-] | 7.82%
68 | CN(c1cccc(NC(=O)c2ccccc2N(C)S(=O)(=O)c2ccccc2)c1)S(C)(=O)=O | 13.5%
69 | COC(=O)c1cccc2c1-c1ccccc1/C2=N/O | -8.96%
70 | COc1ccccc1N1CCN(C(=O)c2cc(=O)c3ccc(C)cc3o2)CC1 | 1.21%
71 | OC(CNCCc1ccccc1)COc1ccc(OCC(O)CNCCc2ccccc2)cc1 (stereo not shown) | 9.96%
72 | Clc1ccc(-c2nnn(Cc3nc4ccccc4s3)n2)cc1 | 3.79%
73 | O=C(Nc1ccc(CN2CCOCC2)cc1)c1cc2ccccc2o1 | -12.1%
74 | O=C(CC(=O)c1ccccc1)Nc1cc(C(F)(F)F)ccc1Cl | 3.87%
75 | COc1ccccc1NC(=O)Nc1ccc(C(N)=O)cc1 | 3.57%
76 | Cc1nnc(NC(=O)Cn2nc(C)c3ccccc3c2=O)s1 | 12%
77 | Nc1ccc(C(=O)N2CCN(S(=O)(=O)c3ccc4c(c3)OCCO4)CC2)cc1[N+](=O)[O-] | 10.2%
78 | CN(CC(=O)Nc1ccc(Cl)c(C(F)(F)F)c1)C(=O)c1cn2ccccc2n1 | 5.27%
79 | NNC(=O)C1=NOC(CNc2ncc(C(F)(F)F)cc2Cl)C1 (stereo not shown) | -1.7%
80 | Cc1ccc(SC(C)C(=O)NCc2cccnc2)cc1 (stereo not shown) | 7.77%
81 | COc1ccc(Cl)cc1NC(=O)C/C(C)=N/NC(=O)C(=O)NCc1ccccc1 | 12.1%
82 | Nc1ncn(-c2ncc(C(F)(F)F)cc2Cl)n1 | 14.5%
83 | COc1ccc(CC(=O)NCc2nnc(SCc3ccc([N+](=O)[O-])cc3)n2C)cc1 | -28.2%
84 | O=C(c1ccc2c3n(nc2c1)-c1ccccc1CO3)N1CCCCC1 | 3.07%
85 | O=[N+]([O-])c1cccc(/C=N/n2c(-c3cccnc3)n[nH]c2=S)c1 | 9.23%
86 | O=C(CN1C(=O)S/C(=C\c2ccc(Cl)cc2)C1=O)NC1C=CS(=O)(=O)C1 (stereo not shown) | 6.73%
87 | COc1cc(/C=C(\C#N)c2ccccn2)cc(OC)c1O | 18.4%
88 | CC(O)Cc1nsc(NC(=O)c2cccs2)n1 (stereo not shown) | 14.2%
